Here are results for 86 sequences from the supplement of paper PMC3334620.

Whole data set: some 33,000 sequences, median “E-score (-0.5 to 0.5)” near -0.012, cut for the highest 2% near 0.27. The list shows a part of the results.

In this assay the target is T1, Vhr1 (UniProt P40522).
T1 sequence: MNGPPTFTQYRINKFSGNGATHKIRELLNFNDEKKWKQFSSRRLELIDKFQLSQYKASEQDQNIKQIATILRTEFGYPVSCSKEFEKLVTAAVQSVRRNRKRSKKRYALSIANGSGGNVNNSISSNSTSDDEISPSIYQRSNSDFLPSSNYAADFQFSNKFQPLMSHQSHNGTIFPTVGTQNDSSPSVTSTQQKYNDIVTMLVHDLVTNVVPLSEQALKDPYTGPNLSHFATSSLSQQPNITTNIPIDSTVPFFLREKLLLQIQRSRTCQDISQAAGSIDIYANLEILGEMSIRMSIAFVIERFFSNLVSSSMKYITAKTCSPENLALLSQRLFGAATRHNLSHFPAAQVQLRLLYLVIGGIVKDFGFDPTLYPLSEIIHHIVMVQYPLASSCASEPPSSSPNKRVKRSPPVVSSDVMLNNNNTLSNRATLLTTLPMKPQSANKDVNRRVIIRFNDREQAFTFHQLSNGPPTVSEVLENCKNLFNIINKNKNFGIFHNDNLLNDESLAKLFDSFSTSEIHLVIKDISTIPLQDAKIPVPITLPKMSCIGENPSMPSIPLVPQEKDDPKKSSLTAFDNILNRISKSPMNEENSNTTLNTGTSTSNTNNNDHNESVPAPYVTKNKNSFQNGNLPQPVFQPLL
In words: PBM E-score (8-mer binding enrichment) (E-score (-0.5 to 0.5)); higher = stronger / more preferred TF binding; most listed sequences are background and not binding sites. Conditions: protein concentration: 200 nM; construct: GST-full length. Here is the method: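 Universal 'all 10-mer' protein binding microarrays (Agilent AMADID 015681) probed with GST-tagged S. cerevisiae TFs (full-length or DBD) made by in vitro transcription/translation (PURExpress), about 100-200 nM. Bound TF was detected with fluorescent anti-GST. Each ungapped 8-mer (which stands for itself and its reverse complement) is scored by the PBM enrichment score (E-score), a modified Wilcoxon-Mann-Whitney statistic from -0.5 to +0.5, computed with the Universal PBM Analysis Suite. Scale: above 0.35 generally sequence-specific binding.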
On to GTGTCAAC, for which the “PBM E-score” value was -0.00154.
Regarding AGAATTTG, the “PBM E-score” value was -0.17.
As to ACGCGAAG, the “PBM E-score” value was determined as 0.0207.
Regarding AAACACGG, the “PBM E-score” value is -0.0903.
Take AGAGGGGG: the “PBM E-score” value is -0.218.
The result for ACATGGCA reads 0.11.
Take ACATTGTG: the “PBM E-score” value was found to be 0.0853.
With CAACCCGA, the “PBM E-score” value came out at 0.034.
Consider AAACTACC, for which the “PBM E-score” value was -0.0427.
In the case of ATTAATTA, the “PBM E-score” value was 0.0406.
Turning to AGGAGTGA, the “PBM E-score” value came out at 0.00535.
Regarding ACGTGGCC, the “PBM E-score” value is -0.297.
CGTTTCGA: the “PBM E-score” value is -0.103.
With AAGATGCT the figure was -0.159; with GCGACAGC, -0.189.
On to AAGAATGA, for which the “PBM E-score” value is 0.0188.
As for CCCGTCCG, the “PBM E-score” value is -0.167.
CCAATCCA: the “PBM E-score” value is -0.0361.
Consider ACTCCAGC, for which the “PBM E-score” value turned out to be 0.187.
On to ACCGTCAT, for which the “PBM E-score” value was 0.0674.
With ACCACTAG, the “PBM E-score” value is -0.101.
Turning to CCTCGACG, the “PBM E-score” value was -0.241.
The result for CGGCCCAG reads -0.102; that for CAGGGGTA, -0.129; that for CGCTAGCG, -0.263.
Regarding AACCTTGT, the “PBM E-score” value was -0.0788.
For the sequence TCTTCCCA, the “PBM E-score” value is -0.168.
With CAAGCACG the figure was 0.029.
Turning to AACCCCAT, the “PBM E-score” value amounted to 0.0589.
GACTCCCC: the “PBM E-score” value is 0.223.
Turning to GCGGCGTA, the “PBM E-score” value was determined as 0.101.
With AACCCCAC, the “PBM E-score” value is 0.0262.
On to AGAAGGTA, for which the “PBM E-score” value was found to be 0.0148.
The result for AGTTGAGC reads -0.105; that for CTGGCGAA, 0.0736.
Regarding CCACAGGG, the “PBM E-score” value was -0.12.
For the sequence AAGTCGAG, the “PBM E-score” value is -0.158.
For the sequence AAAATGCT, the “PBM E-score” value is 0.00247.
Consider ATCAGTGA, for which the “PBM E-score” value is -0.0469.
Consider GGAGTTAA, for which the “PBM E-score” value came to 0.022.
CGATGTCC: the “PBM E-score” value turned out to be 0.0618.
With CGTGGTCC, the “PBM E-score” value amounted to 0.0707.
On to CCTATGAC, for which the “PBM E-score” value is 0.0237.
The result for CGAGGCAG reads -0.118.
With ATTTCAAC the figure was -0.18; with TCATGCGA, 0.285.
On to AAGTTGGG, for which the “PBM E-score” value was -0.0448.
Consider CTCCGAGA, for which the “PBM E-score” value was found to be 0.0305.
In the case of TACCTCTA, the “PBM E-score” value was -0.134.
The result for ACGACGGA reads 0.0348; that for CAGGGAGA, 0.021.
With GGAAACTA, the “PBM E-score” value is -0.00502.
With ATTTCGCG, the “PBM E-score” value was found to be 0.069.
For AACTCTGC, the “PBM E-score” value stood at 0.0334.
With GTTCATTA the figure was -0.0167; with GTTTAGAA, -0.121.
As for CAGTCTTA, the “PBM E-score” value was -0.00565.
In the case of GGCCCGCC, the “PBM E-score” value was -0.0605.
On to GAAAATAA, for which the “PBM E-score” value was -0.25.
In the case of CATTGCTC, the “PBM E-score” value worked out at 0.0833.
With ACCAGGTG, the “PBM E-score” value is -0.00153.
With GAGACCCA, the “PBM E-score” value worked out at 0.0811.
As for AACTAAGC, the “PBM E-score” value was -0.0419.
For GAAAACTC, the “PBM E-score” value is -0.187.
Take ATTCGTTC: the “PBM E-score” value was -0.0156.
With ATCTGAGC the figure was -0.0187; with CTGAGATC, -0.142.
With AGAAGGAC, the “PBM E-score” value was -0.213.
For AGGATCGG, the “PBM E-score” value was -0.0744.
As for AGACCCGC, the “PBM E-score” value came to 0.121.
For the sequence GATCAGCA, the “PBM E-score” value is 0.0116.
With TAAATCAA, the “PBM E-score” value is -0.0533.
As to AGACCCCA, the “PBM E-score” value turned out to be 0.0804.
In the case of ACCGGAGG, the “PBM E-score” value was -0.128.
Turning to ATGAGACG, the “PBM E-score” value was 0.00085.
With TGAGCCCA, the “PBM E-score” value was determined as 0.13.
With ACAGAGGA the figure was 0.026; with ACGGATCG, 0.0223; with CATATTGG, 0.132.
Regarding CGATAGAA, the “PBM E-score” value is -0.164.
With CTTGGCGC, the “PBM E-score” value amounted to 0.0312.
Take GAAATCAA: the “PBM E-score” value was -0.199.
With CAGTTCGC the figure was -0.00078.
The result for AATAAAGC reads -0.176; that for CACTGTAA, 0.123.
Take CTGACACA: the “PBM E-score” value was 0.253.
